Measurements taken from PubChem BioAssay AID1460 (National Center for Advancing Translational Sciences (NCATS), 2008).
The whole screen tested about 270,000 compounds, of which about 5,800 (2.1%) were called active. This list was built around the results that the source calls inconclusive (neither active nor inactive); the mix of calls is not that of the screen. The call rests on the fitted dose curve; in most records, active means well fitted inhibition curve with a large enough effect; inconclusive means small, poorly fitted or top-dose-only effect; inactive means flat fitted curve, though single readings scatter. Where the call is inconclusive, the potency comes from a doubtful curve fit.
Further: nearly all actives have a fitted effect of over 55% in size.
Potency means the concentration at half of the fitted maximal effect; tags describe the fitted curve by direction and shape.

The compounds below were run against Microtubule-associated protein tau (Homo sapiens) (UniProt P10636) (assay: qHTS for Inhibitors of Tau Fibril Formation, Thioflavin T Binding). Conditions: recombinant tau K18 P301L, heparin-induced fibrillization, ThT fluorescence; series mostly up to 57.4 µM.
Chain of UniProt P10636 (P10636 whole entry, looked up): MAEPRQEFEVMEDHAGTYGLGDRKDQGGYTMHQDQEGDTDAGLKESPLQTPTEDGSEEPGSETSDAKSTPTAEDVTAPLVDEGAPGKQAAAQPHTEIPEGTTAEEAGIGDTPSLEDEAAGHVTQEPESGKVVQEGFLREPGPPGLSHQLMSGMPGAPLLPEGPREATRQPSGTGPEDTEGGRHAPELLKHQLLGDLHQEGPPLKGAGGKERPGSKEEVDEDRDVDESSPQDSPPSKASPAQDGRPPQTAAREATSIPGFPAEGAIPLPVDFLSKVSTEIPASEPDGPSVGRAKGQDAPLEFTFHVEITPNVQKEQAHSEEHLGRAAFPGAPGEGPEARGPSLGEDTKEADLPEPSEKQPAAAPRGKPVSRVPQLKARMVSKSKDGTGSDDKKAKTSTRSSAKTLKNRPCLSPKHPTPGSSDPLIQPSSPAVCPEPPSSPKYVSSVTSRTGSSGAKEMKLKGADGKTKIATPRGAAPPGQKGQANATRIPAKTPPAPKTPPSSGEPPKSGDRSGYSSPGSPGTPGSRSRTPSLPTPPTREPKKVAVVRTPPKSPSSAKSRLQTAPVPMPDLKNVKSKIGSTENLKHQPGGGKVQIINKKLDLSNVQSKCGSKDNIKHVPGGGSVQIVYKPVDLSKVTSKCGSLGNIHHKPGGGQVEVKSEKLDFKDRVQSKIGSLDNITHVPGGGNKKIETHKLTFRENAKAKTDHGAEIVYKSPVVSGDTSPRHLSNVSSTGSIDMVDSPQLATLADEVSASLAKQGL
Method in brief: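 Using a mix of unlabeled (15 uM) and Alexa 594-labeled (0.24 uM) tau K18 P301L, heparin-triggered fibrillization over 6 hr at 37 C was scored by ThT fluorescence.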
For CCCCn1cc(S(=O)(=O)c2ccc(C)c(C)c2)c(=O)c2cc(F)c(N3CCN(C)CC3)cc21, the Potency was “inactive”.
With Nc1ccc2nc(-c3cccnc3)[nH]c2c1 the Potency was inconclusive: 28.2 µM [inhibitor, single point].
In the case of CCc1nn(CC(=O)NC(C)CCc2ccccc2)c(=O)c2cc3cc(F)ccc3n12 (stereo unspecified), the Potency is reported as “inactive”.
For CCc1nnc(NC(=O)c2nc(S(=O)(=O)Cc3cccc(C)c3)ncc2Cl)s1, the Potency was inconclusive: 3.98 µM [inhibitor, full curve].
With O=C1C(=Cc2cccn2-c2ccccc2)C(=O)c2ccccc21 the Potency was inconclusive: 2.51 µM [inhibitor, full curve].
For O=C(CNC(=O)c1ccccc1Br)N/N=C/c1ccccc1O, the Potency was “inactive”.
In the case of O=C(Nn1c(O)c(C=C2N=c3ccccc3=N2)sc1=S)c1cccc(Cl)c1, the Potency is reported as inconclusive: 8.91 µM [inhibitor, partial curve].
Cc1ccc(Nc2ncnc3c2cnn3-c2ccccc2)c(C)c1 was tested, and the Potency was inconclusive: 25.1 µM [inhibitor, partial curve, poor fit].
COc1cccc(/C=C/C(=O)Nc2ccc3nc4n(c(=O)c3c2)CCCC4)c1OC was tested, and the Potency was inconclusive: 6.31 µM [inhibitor, partial curve, poor fit].
For CCCCCC(=O)NC(=S)NNC(=O)CC, the Potency was inconclusive: 39.8 µM [inhibitor, partial curve].
For CC1(C)CC(=O)C2=C(C1)OC1=C(C(=O)CC(C)(C)C1)C2c1ccc(O)cc1O, the Potency was inconclusive: 14.1 µM [inhibitor, partial curve].
In the case of CCN(CC)c1ccc(/C=N/Nc2nc(C)cc(C)n2)cc1, the Potency is reported as inconclusive: 11.2 µM [inhibitor, partial curve].
In the case of CCCN1CC=C2C(C#N)=C(N)C(C#N)(C#N)C(c3cc(OC)ccc3OC)C2C1 (stereo unspecified), the Potency is reported as inconclusive: 17.8 µM [inhibitor, partial curve].
For COc1ccc(O)c(C(=O)CC(=O)c2ccccc2)c1, the Potency was inconclusive: 12.6 µM [inhibitor, partial curve].
For O=C(/C=C/c1ccc(Cl)c(Cl)c1)n1cccn1, the Potency was active: 14.1 µM.
With CCOc1cccc(-c2nn3c(-c4cc(C)[nH]n4)nnc3s2)c1 the Potency was “inactive”.
For O=C(Nc1ccc(N2CCOCC2)cc1)Nc1cnsn1, the Potency was inconclusive: 17.8 µM [inhibitor, partial curve].
O=c1c2c(-c3ccccc3)csc2nc2c3ccccc3c(NCCN3CCOCC3)nn12 was tested, and the Potency was inconclusive: 25.1 µM [inhibitor, partial curve].
In the case of O=C(CSc1nnc(-c2ccccc2)n1Cc1ccco1)NCc1ccc2c(c1)OCO2, the Potency is reported as “inactive”.
For CC(C)(C)C(=O)/C=c1\[nH]c(=O)/c(=C\c2ccc(C#N)cc2)s1, the Potency was inconclusive: 4.47 µM [inhibitor, full curve].
In the case of Cc1cccc(N2CCN(C(=O)C(Cc3ccccc3)n3cccc3)CC2)c1C (stereo unspecified), the Potency is reported as inconclusive: 25.1 µM [inhibitor, single point].
For COC(=O)c1cc(=O)n(Cc2ccc(OC)c(OC)c2)c(=Nc2ccc(F)cc2)s1, the Potency was inconclusive: 35.5 µM [inhibitor, single point].
With Nc1[nH]c(=S)nc2nc(-c3ccccc3)c(-c3ccccc3)nc12 the Potency was inconclusive: 31.6 µM [inhibitor, single point].
With COc1ccc2cc(C(=O)N/N=C/c3sc4ccccc4c3O)ccc2c1 the Potency was active: 1.26 µM.
With O=C(CCCCCn1c(=O)[nH]c2ccccc2c1=O)NCc1cccc(Cl)c1 the Potency was “inactive”.
In the case of Cc1ccc(NC(=O)CN2C(=O)C(c3ccc(F)cc3)=NC23CCCCC3)c(C)c1, the Potency is reported as “inactive”.
Cc1cccc(C)c1OCC(O)CN1CCC(CN2C(=O)c3cccc4cccc(c34)C2=O)CC1 (stereo unspecified) was tested, and the Potency was inconclusive: 22.4 µM [inhibitor, partial curve].
In the case of COc1ccc(NC(=S)Nc2ccc(OCc3ccccc3)cc2)c(OC)c1, the Potency is reported as inconclusive: 3.55 µM [inhibitor, full curve].
O=c1[nH]c2ccc(NCc3ccc(-c4cccc(Cl)c4)o3)cc2[nH]1 was tested, and the Potency was inconclusive: 2 µM [inhibitor, full curve].
In the case of Nc1ncc(Br)cc1N=Cc1ccccc1, the Potency is reported as inconclusive: 31.6 µM [inhibitor, single point].
With CC(C)(C)CC(C)(C)c1ccc(O)c(CN2CCN(CCC#N)CC2)c1 the Potency was “inactive”.
In the case of COc1cc(C(=O)N2CCC(O)(c3ccccc3)CC2)cc(OC)c1OC, the Potency is reported as “inactive”.
With Cc1nnc(NC(=O)c2sc3ccccc3c2Cl)s1 the Potency was inconclusive: 15.8 µM [inhibitor, partial curve].
With Cc1ccc(-n2c(C)cc(/C=N/NC(=O)c3ccncc3)c2C)cc1 the Potency was inconclusive: 35.5 µM [inhibitor, single point].
O=C(C1CCCN(Cc2cccs2)C1)N1CCCCCC1 (stereo unspecified) was tested, and the Potency was inconclusive: 11.2 µM [inhibitor, partial curve].
With Fc1cccc2sc(Nc3nnc(-c4ccco4)o3)nc12 the Potency was active: 12.6 µM.
For COc1ccc(/C=C2/CCOC2=O)cc1, the Potency was inconclusive: 39.8 µM [inhibitor, partial curve].
With COCCCNC(=S)N(Cc1ccccc1)Cc1nc2ccccc2c(=O)[nH]1 the Potency was “inactive”.
In the case of S=C(NCCc1c[nH]c2ccccc12)NC1CC1, the Potency is reported as inconclusive: 44.7 µM [inhibitor, single point].
In the case of CC(=O)Nc1ccc(S(=O)(=O)N2CCN(c3ccc([N+](=O)[O-])c(NCCN4CCOCC4)c3)CC2)cc1, the Potency is reported as inconclusive: 28.2 µM [inhibitor, partial curve].
For CCN(CC(=O)NC(c1ccccc1)c1ccccc1)Cc1nc2ccccc2c(=O)[nH]1, the Potency was “inactive”.
In the case of C=C(C)Cn1c(SCC(=O)c2ccc(OC)cc2)nc2sc3c(c2c1=O)CCCC3, the Potency is reported as “inactive”.
In the case of COC(=O)c1c(N)n(-c2ccc(N3CCOCC3)cc2)c2nc3ccccc3nc12, the Potency is reported as active: 10 µM.
In the case of Cc1ccc(OCC(=O)Nc2cccc(OCc3cc(=O)n4ccccc4n3)c2)cc1C, the Potency is reported as inconclusive: 0.501 µM [inhibitor, full curve].
With COC(=O)N[C@H](C[N+](=O)[O-])C(C)(C)C the Potency was “inactive”.
In the case of O=C1CSC(=S)N1/N=C/c1ccc(O)c([N+](=O)[O-])c1, the Potency is reported as active: 6.31 µM.
In the case of O=C(COC(=O)C1CC1)Nc1ccc(Oc2ccccc2)cc1, the Potency is reported as inconclusive: 35.5 µM [inhibitor, partial curve].
In the case of Nc1nc(Nc2cccc(C(F)(F)F)c2)sc1C(=O)c1ccccc1, the Potency is reported as “inactive”.
COCCNC(=O)CSc1cc(-c2ccccc2)c2ccc(OC)cc2n1 was tested, and the Potency was inconclusive: 14.1 µM [inhibitor, partial curve].
In the case of COc1ccc(NC(=O)c2cc3n(n2)C(C(F)(F)F)CC(c2ccco2)N3)cc1 (stereo unspecified), the Potency is reported as inconclusive: 14.1 µM [inhibitor, partial curve].
For CCOc1cccc2cc(-c3cn4c(n3)sc3cc(C)ccc34)c(=O)oc12, the Potency was inconclusive: 25.1 µM [inhibitor, single point].
For COc1cccc(C(=O)NC2CC3CCCC(C2)N3CC(=O)Nc2ccccc2)c1 (stereo unspecified), the Potency was inconclusive: 31.6 µM [inhibitor, single point].
With CC1(C)CNc2cc([N+](=O)[O-])ccc2S1 the Potency was inconclusive: 15.8 µM [inhibitor, partial curve].
CCOc1ccccc1NS(=O)(=O)c1cccs1 was tested, and the Potency was “inactive”.
For CCOc1cc(/C=N\Nc2ccc([N+](=O)[O-])cc2)ccc1OCC(=O)Nc1ccc(C)c(C)c1, the Potency was active: 2.24 µM.
In the case of Cc1ccc(NCc2ccco2)cc1C, the Potency is reported as inconclusive: 0.631 µM [inhibitor, full curve, poor fit].
With Cn1cc(CC(=O)N2CCN(c3ccc(Cl)cc3)CC2)c2ccccc21 the Potency was inconclusive: 17.8 µM [inhibitor, partial curve].
For C#CCn1c(COc2ccccc2C)nc2ccccc21, the Potency was “inactive”.
With CCCN(CCC)C(=O)CSc1nc2ccccc2c(=O)n1CC1COc2ccccc2O1 (stereo unspecified) the Potency was inconclusive: 39.8 µM [inhibitor, single point].
For CCc1ccccc1NC(=O)/C(C#N)=C/c1ccc(Sc2ccccc2)o1, the Potency was inconclusive: 11.2 µM [inhibitor, partial curve].
In the case of COc1cc(/C=C2\SC(=O)N(CCNC(=O)c3sc4cc(F)ccc4c3Cl)C2=O)cc(OC)c1OC, the Potency is reported as inconclusive: 3.16 µM [inhibitor, partial curve, poor fit].
Nc1nc2n(n1)C(=O)CC(c1ccccc1)N2 (stereo unspecified) was tested, and the Potency was “inactive”.
For O=c1c2ccccc2nc(COc2ccccc2)n1/N=C/c1cc([N+](=O)[O-])ccc1O, the Potency was inconclusive: 25.1 µM [inhibitor, partial curve].
With CCn1c(C(Cc2ccccc2)NC(=O)COC)nc2ccccc21 (stereo unspecified) the Potency was inconclusive: 20 µM [inhibitor, single point].
With CC(C)(C)c1nc2scc(-c3cccs3)c2c(=O)o1 the Potency was inconclusive: 28.2 µM [inhibitor, single point].
For Cc1cc(C=O)c(C)n1-c1ccc(N2CCCC2)c([N+](=O)[O-])c1, the Potency was inconclusive: 35.5 µM [inhibitor, partial curve].
With Brc1ccc(-c2csc(NC3=NCCCCC3)n2)cc1 the Potency was “inactive”.
With COc1cccc(/C=N\NC(=O)Cn2nnc3ccccc32)c1O the Potency was “inactive”.
CCN(CC)S(=O)(=O)c1ccc(N2CCOCC2)c(NC(=O)CC(C)(C)C)c1 was tested, and the Potency was inconclusive: 0.562 µM [inhibitor, full curve, poor fit].
With COc1ccc(-c2oc3ccc(C)cc3c(=O)c2O)cc1OC the Potency was inconclusive: 1.78 µM [inhibitor, full curve].
For COc1ccc(-c2cc(C(F)(F)F)nc(SCC(=O)N3CCOCC3)n2)cc1OC, the Potency was inconclusive: 2.82 µM [inhibitor, single point].
